Assay results published in the supplement of paper PMC11417369.
± gives the standard deviation of the averaged measurements. Some of the results follow.

The sequences below were run on PfAP2-I AP2 domain 3 (GST-tagged) (assay: gcPBM binding intensity (ln(normalized median fluorescence intensity)); higher = stronger DNA binding).
Procedure, shortened: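 Plasmodium falciparum DNA-binding domains carrying a GST tag were expressed in E. coli and applied for 1 h, at about 25 μg on average, to an Agilent 4 × 180k array. The array held primer-extended double-stranded 36-bp intergenic genomic probes together with negative controls, and binding took place in 1× PBS with 1% milk, 0.2 mg/ml BSA, 0.5% salmon testes DNA and 0.03% Triton X-100. An Alexa488 anti-GST antibody detected bound protein, and the array was scanned at 488 nm. Binding intensity is taken as the highest Masliner-normalised natural-log median intensity across replicate spots of either probe orientation.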

Row | Sequence | gcPBM binding intensity (ln)
1 | TTTTAAATACTTTATTGTACATTATATATATATATA [XGTACX_site7021] | 8.88 ± 0.042
2 | TAAGTATATATATTTACACACATTTGTTTTTTTTTA [CACACA_site3784] | 7.57 ± 0.6
3 | AATTATGTGTGTCAATGTACACGATTTACATAATAT [XGTACX_site5150] | 7.98 ± 0.55
4 | TGAAAAATATAAGGTTGTACTTACATCGGGAATAAT [XGTACX_site4701] | 8.05 ± 0.55
5 | AATATATGGTTTCTTGATATTAAATTCAATTTAATG [CACACA_negctrl_site69] | 7.51 ± 0.59
6 | ATAAATGAACAAGTGGCACACACACCGTATAACTAA [CACACA_site9047] | 8.19 ± 0.52
7 | ATCCGTGGGTGAAATACACACATGATAATGTGAATG [CACACA_site4662] | 7.54 ± 0.5
8 | ATTTGTATATACATATGTACACATGTAGGCTCATAA [XGTACX_site1709] | 7.87 ± 0.42
9 | TTTCGTAAACTTTATGCACACACATATACATATTTC [CACACA_site8146] | 10 ± 0.28
10 | TATATTAAAATAATCACACACATCAATTAATGGTAA [CACACA_site1234] | 7.43 ± 0.34
11 | TTTGAATACTGAATGGTGCAAATTGTTCTCCCCATG | 10.9 ± 0.61
12 | AGTATAACTTTTGCGCGTACACACATTTATCCTCTT [XGTACX_site429] | 8.35 ± 0.52
13 | TACAAATGCGTATGTCAATATATGGAGAAATAAATA [TGCATGCA_negctrl_site290] | 7.73 ± 0.49
14 | TGTATATGGTTTGTGCAAAAATTTATTAATGTGTAA [TGCATGCA_negctrl_site374] | 8.8 ± 0.35
15 | TATAATAATATTTACACACGCATATGTTATATATAT [CACACA_site1477] | 8.35 ± 0.85
16 | TATCTTTTTTTTAATACACACAAATATATGAAAGTA [CACACA_site4161] | 7.99 ± 0.33
17 | GTTATAATTGAACTAGTGCATAAATATATTTTAATT [GTGCAC_site9851] | 11.1 ± 0.45
18 | AATTCTGGCAAAATAACACACACATATATTTTATAT [CACACA_site9064] | 7.89 ± 0.59
19 | TTTTTTTTTACTAACTGTACTAAAGAAAAAAAAGGG [XGTACX_site3519] | 8.02 ± 0.18
20 | ATAAAGGAATTTTATACACACAACATATATATATAT [CACACA_site2861] | 9.45 ± 0.6
21 | ATATAAACACTGAATGCATGCACATATATATATATA [TGCATGCA_site940] | 9.945 ± 0.007
22 | GGGGGGGGAGGGTGAATACACACGTAATAATCATAA [CACACA_site1716] | 10.7 ± 0.51
23 | CGTATTATTATATAAACACACAAGGGGGCATGTATA [CACACA_site745] | 9.18 ± 0.12

Row | Sequence | gcPBM binding intensity (ln)
24 | ATGTGTATATGTGTGGGTACTTAATTTTTTTCTTTA [XGTACX_site5351] | 8.31 ± 0.48
25 | AGGATATATATATTCACACACACATGGAAATATATA [CACACA_site383] | 7.58 ± 0.52
26 | ATATATATTTTATATTGTACTTATTATTTTTAGGGC [XGTACX_site723] | 7.71 ± 0.29
27 | TATGAATATCTATACACACACATATAAATACACGCT [CACACA_site6853] | 7.83 ± 0.52
28 | TAGATGTAAGTACATACACACATATATAAATAAATA [CACACA_site8528] | 8 ± 0.16
29 | CTAATTGTTATTTTGTGTACTTATCATTCGAAATAT [XGTACX_site7963] | 8.01 ± 0.37
30 | AAAAAACAAATAAGTAAACACACATATATAATATAT [CACACA_site8830] | 7.55 ± 0.55
31 | ATATATATTTTAATTACACACAAAAAAAAAAAAAAA [CACACA_site4778] | 8.06 ± 0.47
32 | TTATATATTTTTAGGTGTACTTTTTTTTTTTTTTTT [XGTACX_site8164] | 8.79 ± 0.4
33 | AAAAAAAAAAAAAATACACACATATTTTATAGGGGA [CACACA_site3261] | 8.23 ± 0.45
34 | TATTTTTTGAAAAGTTCACACATCCAACTCGAGTTG [CACACA_site4412] | 7.61 ± 0.67
35 | AAAATAATGAAATGAAAAAAAAAAATTTAGATTCTA [CACACA_negctrl_site1385] | 7.26 ± 0.84
36 | GTCATATATTTATGTACACACATATATATATTTATA [CACACA_site4911] | 7.97 ± 0.26
37 | TATTCTAAGATAAGTGGTACTTATATATAATATATA [XGTACX_site8316] | 7.53 ± 0.38
38 | TGGTATGCAATATTGGTGCGTATATATTTTAAAGGG | 9.91 ± 0.16
39 | TATTTTTAATTTTTTAATGGTTTAATATTTTTATAT [CACACA_negctrl_site1186] | 7.33 ± 0.52
40 | ATATATATATATATATGTACATAAACATATATATAT [XGTACX_site1064] | 9.47 ± 0.66
41 | TCTTTAGCTTCTTCTTTTTTTTTTTTTTTTTTTTTT [XGTACX_negctrl_site518] | 9.615 ± 0.021
42 | CATATGTTATATGTAGTGCATTACTATAGGATTTAT [GTGCAC_site9860] | 11.4 ± 0.64
43 | TATTTTGCAAAATGTGCATGTTGTGTATTATGTGAC [TGCATGCA_site59] | 8.97 ± 0.51
44 | TATAATATACTATGTGGTACATATATATATTTATAG [XGTACX_site4556] | 7.51 ± 0.22
45 | ATATATAATATTGGTGGTACAAGGGTATTTTATATT [XGTACX_site8215] | 8.04 ± 0.52
46 | GTATAATTGGAAATTACACACCTTAGAATGTAACAT [CACACA_site4059] | 7.59 ± 0.46

Row | Sequence | gcPBM binding intensity (ln)
47 | ATTATAATATATATATGTACATATATATATAATACT [XGTACX_site5092] | 7.79 ± 0.29
48 | TCATTTATTTTTCTTTGTACACAAAAGTTTTTATGT [XGTACX_site690] | 7.98 ± 0.54
49 | TTCAAAAAATATATCTGTACAAATTATGTAGATGAA [XGTACX_site5522] | 7.72 ± 0.47
50 | TTTTTTTTTTTTTTTTTTTTACGATATATTTTAAAA [XGTACX_negctrl_site401] | 8.11 ± 0.69
51 | TTTTTACTTATTTATTATGTACAATTTCTTCTTTCT [CACACA_negctrl_site264] | 7.63 ± 0.76
52 | TAGATCATAACAATTGCACACATTTGCATTTATATT [CACACA_site1562] | 8.88 ± 0.52
53 | AATGTACGCATATACACACACATAAATAGATACGTA [CACACA_site3406] | 8.01 ± 0.23
54 | AATAGTTAAATACATACATGCATTCATATAATATAT [TGCATGCA_site433] | 7.91 ± 0.54
55 | TAATTAAGAATATATAGTACATAGTTGAAAAACTTT [XGTACX_site6359] | 7.71 ± 0.54
56 | AAGATAAAAATATGCACACATATATATATATATATA [CACACA_site404] | 9.51 ± 0.18
57 | AACGAAAACACTACGTGTACCAAACGTCCTACCAAC [XGTACX_site257] | 7.66 ± 0.7
58 | CCTTTTTATTTTTGTAGTACTACATATACATATCTG [XGTACX_site7791] | 8.45 ± 0.52
59 | AAAAAAAAAAAAAATAAATAAATAAATAAATATATA [GTGCAC_negctrl_site382] | 7.64 ± 0.31
60 | GGTGTTTTTCACAGATGTACACAAATAAAAAAGAAA [XGTACX_site4454] | 8.39 ± 0.47
61 | TATATATAAAAAAAAAGTACATATAATATAATATTT [XGTACX_site7902] | 7.73 ± 0.34
62 | AAATGGACAGTATAAAAATGGAGAATATAAAAATTT [CACACA_negctrl_site889] | 7.78 ± 0.83
63 | TATTCAAAGAAAAACTGTACGTGTAGCAAACGTCAT [XGTACX_site7713] | 7.96 ± 0.43
64 | ATATTAAAAAAATATAAACACACAAAAAAAAAATAT [CACACA_site8283] | 7.89 ± 0.56
65 | GACCCCATATACATATGTACATACATAATATATATA [XGTACX_site1817] | 8.45 ± 0.45
66 | TTTTTATAACAGCTTAGTACATATAAGAATTCTTGC [XGTACX_site5890] | 7.74 ± 0.44
67 | TTTGTTGGTATGGTTACACACATTTAGGAAATAAAA [CACACA_site1411] | 7.79 ± 0.61
68 | TCTTATAAATTAAATATAAAAAAAAAAAAAAAAAAA [XGTACX_negctrl_site77] | 7.94 ± 0.61
69 | AGTATTTTGTTTATCACACATATTGGAATTTTCAAT [CACACA_site4686] | 7.92 ± 0.66

Row | Sequence | gcPBM binding intensity (ln)
70 | AAAATTATACACACACGTACATATAAATAGAAATAT [XGTACX_site1753] | 8.15 ± 0.26
71 | AAAATAATTCAATGTAGTACAATACAAATTGAGAGA [XGTACX_site5991] | 7.78 ± 0.38
72 | TTAATTTCGAATTATTGTACATTAATATATCTACAG [XGTACX_site3314] | 7.58 ± 0.46
73 | AAAACAAATAGACACGCACACAAAAAAAAAAAAAAA [CACACA_site801] | 8.18 ± 0.49
74 | GAATAAAAAAAAAAAAAAATTTATTTTATAATAAAA [CACACA_negctrl_site1514] | 7.24 ± 0.49
75 | ATATATATATATATATGTACATAAATATAAATTTAA [XGTACX_site8715] | 9.5 ± 0.67
76 | ATGCAATAATAATGGAGTACATATTAATATTGATCA [XGTACX_site2312] | 7.97 ± 0.45
77 | AAAAAATATATTAAGGCACACACATACATATATATA [CACACA_site9239] | 9.675 ± 0.035
78 | CCTTTTGGATGAAAGTGTACAGGTGAGAAAAATTCC [XGTACX_site3358] | 8.07 ± 0.54
79 | AATGTAAAGAACAAAACATGCAACTAGTTTACTTTT [TGCATGCA_site841] | 7.58 ± 0.71
80 | TAATTCTTTATTTTTCGTACGTAAAACAAAAAATAT [XGTACX_site862] | 7.85 ± 0.17
81 | TAAGTATATAAAATTACACACTATTTTTTTTCAAGT [CACACA_site1792] | 7.45 ± 0.5
82 | TAGAAAAAAGATAGCACACACGGCCCAATATATATA [CACACA_site5354] | 8.37 ± 0.73
83 | TCGAATATCTTATAGGTGCATCATAAATACATATGT | 10.3 ± 0.31
84 | CGCAAAACAATGATACGTACATATATATATATATAT [XGTACX_site5883] | 9.46 ± 0.56
85 | ATATTCTCTTAAATATGTACGTATGTATATATATAT [XGTACX_site5885] | 9.145 ± 0.049
86 | ATTCTTAAATGTGGTTGTACATATTATCACCTTTAA [XGTACX_site8188] | 7.86 ± 0.46
87 | TTTTTAATTTTATATACACACATAAAAGATATGAAG [CACACA_site7470] | 7.67 ± 0.47
88 | AAGAAAATGTAGAATTAGAAATAAATGAAGAAATGA [TGCATGCA_negctrl_site548] | 7.88 ± 0.62
89 | AGTAGATTTTTATTAGTGCATTTTATACTACAAAAA | 9.71 ± 0.24
